Reference: patent US20190135918A1 (ICHNOS SCIENCES, published 2019)

Key:
[1] = biological target: T1, human CD3 epsilon 1-26_Fc fusion protein (human); assay: SPR, scFv-Fc format, graded relative to chimeric SP34; one grade for human and cynomolgus protein
T1 construct: also called human CD3 1-26_Fc fusion protein

[2] = biological target: T2, cynomolgus monkey CD3 epsilon 1-26_Fc fusion protein (cynomolgus monkey); assay: as above
T2 construct: also called cynomolgus CD3 epsilon 1-26 Fc fusion protein

binding result [1]	binding result [2]	Binder
binds	binds	VH2/VL21 (scFv, also called humanized SP34 VH2/VL21 scFv-Fc fusion) scFv-Fc: EVQLVESGGGLVQPGGSLRLSCAASGFTFNTYAMNWVRQAPGKGLEWVARIRSKYNNYATYYADSVKSRFTISRDDSKNTLYLQMNSLRAEDTAVYYCVRHGNFGNSYVSWFAYWGQGTTVTVSSGGGGSGGGGSGGGGSEIVVTQSPATLSVSPGERATLSCRSSTGAVTTSNYANWVQEKPGQAFRGLIGGANKRAPGVPARFSGSLSGDEATLTISSLQSEDFAVYYCALWYSNLWVFGQGTKLEIKGGGGT[not shown - human IgG1 Fc]
binds	binds	VH5/VL32 (scFv, also called humanized SP34 VH5/VL32 scFv-Fc fusion; hSP34 H5/L32 scFv-Fc) scFv-Fc: EVQLVESGGGLVQPGGSLRLSCAASGFTFNTYAMNWVRQAPGKGLEWVARIRSKYNNYATYYADSVKGRFTISRDDSKNTLYLQMNSLRAEDTAVYYCVRHGNFGNSYVSYFAYWGQGTTVTVSSGGGGSGGGGSGGGGSEIVVTQSPATLSVSPGERATLSCRSSTGAVTAANYANWVQEKPGQAFRGLIGGANKRAPGVPARFSGSLSGDEATLTISSLQSEDFAVYYCALFYSNLWVFGQGTKLEIKGGGGT[not shown - human IgG1 Fc]
